Assay results: the supplement of paper PMC10037445
In all, about 2,900 compounds were measured (“NF-kB SEAP reporter activity, fold change vs agonist alone”: median about 0.99, highest 2% from about 2.6 on). This is one part of the list.

Columns and labels:
RAW-Dual [1] = assay: NF-kB SEAP reporter activity, fold change vs agonist alone; higher = enhanced NF-kB activity
In short: (§1)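 Supernatant from RAW-Dual macrophages was read after 20 hours for IRF by QuantiLuc luminescence and for NF-κB by QuantiBlue absorbance at 620 nm. The cells (50,000 cells/well in DMEM, 384-well plates, 37 °C, 5% CO2) had received 50 nL of library stock by pin tool and, 1 h later, a PRR agonist. Reporter activity is expressed relative to agonist-alone wells as fold change, and wells were flagged cytotoxic if IncuCyte confluency was under 70% of agonist controls in both mask sets.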

RAW-Dual [2] = assay: NF-kB SEAP reporter activity, fold change vs agonist alone; cytotoxicity flag (confluency mask): not cytotoxic; higher = enhanced NF-kB activity
In short: as §1

[3] = library stock concentration (final ~1000-fold dilution): 10 mM, cytotoxicity flag (confluency mask): not cytotoxic, agonist: Imiquimod (TLR7) […]
[4] = library stock concentration (final ~1000-fold dilution): 10 mM, cytotoxicity flag (confluency mask): not cytotoxic, agonist: MPLA (TLR4) […]
[5] = agonist: ODN 1826 (TLR9) 0.5 ug/mL
[6] = agonist: Pam2CSK4 (TLR2/6) 0.1 ug/mL
[7] = agonist: Pam3CSK4 (TLR2/1) 0.1 ug/mL

In the case of `COc1cc(C(=O)N2CCC(N3CCN(C)CC3)CC2)ccc1Nc1ncc2c(n1)N(C)c1ccccc1C(=O)N2C`, the “NF-kB SEAP reporter activity” value (RAW-Dual [1]; [3]) is reported as 1.48 and the “NF-kB SEAP reporter activity” value (RAW-Dual [1]; [4]) is reported as 2.66.
`COc1cc(C(=O)N2CCC(N3CCN(C)CC3)CC2)ccc1Nc1ncc2c(n1)N(C)c1ccccc1C(=O)N2C` (library stock concentration (final ~1000-fold dilution): 10 mM) was tested, and the “NF-kB SEAP reporter activity” value (RAW-Dual [2]; agonist: LPS (TLR4) 0.1 ug/mL) was 3.59, the “NF-kB SEAP reporter activity” value (RAW-Dual [2]; [5]) was 0.264 and the “NF-kB SEAP reporter activity” value (RAW-Dual [2]; [6]) was 1.02. For the same compound, the “NF-kB SEAP reporter activity” value (RAW-Dual [2]; [7]) was 2.01.
`CC(C)(O)c1cc(Nc2cc(Oc3cn(C4CC4)nc3C3CCOCC3)ccn2)ccn1` (library stock concentration (final ~1000-fold dilution): 10 mM) was tested, and the “NF-kB SEAP reporter activity” value (RAW-Dual [2]; agonist: LPS (TLR4) 0.1 ug/mL) was 1.63, the “NF-kB SEAP reporter activity” value (RAW-Dual [2]; [5]) was 1 and the “NF-kB SEAP reporter activity” value (RAW-Dual [2]; [6]) was 1.34. For the same compound, the “NF-kB SEAP reporter activity” value (RAW-Dual [2]; [7]) was 1.1.
With `CC(C)(O)c1cc(Nc2cc(Oc3cn(C4CC4)nc3C3CCOCC3)ccn2)ccn1` the “NF-kB SEAP reporter activity” value (RAW-Dual [1]; [3]) was 1.04 and the “NF-kB SEAP reporter activity” value (RAW-Dual [1]; [4]) was 1.42.
With `Cc1c(C(=O)NN2CCCCC2)nn(-c2ccc(Cl)cc2Cl)c1-c1ccc(Cl)cc1` the “NF-kB SEAP reporter activity” value (RAW-Dual [1]; [3]) was 0.595 and the “NF-kB SEAP reporter activity” value (RAW-Dual [1]; [4]) was 0.98.
In the case of `Cc1c(C(=O)NN2CCCCC2)nn(-c2ccc(Cl)cc2Cl)c1-c1ccc(Cl)cc1` (library stock concentration (final ~1000-fold dilution): 10 mM), the “NF-kB SEAP reporter activity” value (RAW-Dual [2]; agonist: LPS (TLR4) 0.1 ug/mL) is reported as 1.45, the “NF-kB SEAP reporter activity” value (RAW-Dual [2]; [5]) is reported as 0.437 and the “NF-kB SEAP reporter activity” value (RAW-Dual [2]; [6]) is reported as 0.635. The “NF-kB SEAP reporter activity” value (RAW-Dual [2]; [7]) was 0.605.
`CC12CCC(O)CC1=CCC1C2CCC2(C)C(n3cnc4ccccc43)=CCC12` (centres undefined) (library stock concentration (final ~1000-fold dilution): 10 mM) was tested, and the “NF-kB SEAP reporter activity” value (RAW-Dual [2]; agonist: LPS (TLR4) 0.1 ug/mL) was 1.32, the “NF-kB SEAP reporter activity” value (RAW-Dual [2]; [5]) was 0.887 and the “NF-kB SEAP reporter activity” value (RAW-Dual [2]; [6]) was 1.2. For the same compound, the “NF-kB SEAP reporter activity” value (RAW-Dual [2]; [7]) was 1.22.
With `CC12CCC(O)CC1=CCC1C2CCC2(C)C(n3cnc4ccccc43)=CCC12` (centres undefined) the “NF-kB SEAP reporter activity” value (RAW-Dual [1]; [3]) was 1.35 and the “NF-kB SEAP reporter activity” value (RAW-Dual [1]; [4]) was 0.974.
`O=C(NCC1(c2nc(-c3ccccc3)cs2)CCOCC1)c1cccc(-c2noc(C(F)(F)F)n2)c1` was tested, and the “NF-kB SEAP reporter activity” value (RAW-Dual [1]; [3]) was 0.941 and the “NF-kB SEAP reporter activity” value (RAW-Dual [1]; [4]) was 0.882.
`O=C(NCC1(c2nc(-c3ccccc3)cs2)CCOCC1)c1cccc(-c2noc(C(F)(F)F)n2)c1` (library stock concentration (final ~1000-fold dilution): 10 mM) was tested, and the “NF-kB SEAP reporter activity” value (RAW-Dual [2]; agonist: LPS (TLR4) 0.1 ug/mL) was 0.714, the “NF-kB SEAP reporter activity” value (RAW-Dual [2]; [5]) was 1.04 and the “NF-kB SEAP reporter activity” value (RAW-Dual [2]; [6]) was 0.727. The “NF-kB SEAP reporter activity” value (RAW-Dual [2]; [7]) was 0.589.
In the case of `CCN(C)S(=O)(=O)Nc1ccc(F)c(C(=O)c2c[nH]c3ncc(-c4cnc(C5CC5)nc4)cc23)c1F` (library stock concentration (final ~1000-fold dilution): 10 mM), the “NF-kB SEAP reporter activity” value (RAW-Dual [2]; agonist: LPS (TLR4) 0.1 ug/mL) is reported as 3.3, the “NF-kB SEAP reporter activity” value (RAW-Dual [2]; [5]) is reported as 1.55 and the “NF-kB SEAP reporter activity” value (RAW-Dual [2]; [6]) is reported as 0.469. The “NF-kB SEAP reporter activity” value (RAW-Dual [2]; [7]) was 0.764.
With `CCN(C)S(=O)(=O)Nc1ccc(F)c(C(=O)c2c[nH]c3ncc(-c4cnc(C5CC5)nc4)cc23)c1F` the “NF-kB SEAP reporter activity” value (RAW-Dual [1]; [3]) was 1.24 and the “NF-kB SEAP reporter activity” value (RAW-Dual [1]; [4]) was 1.62.
For `COc1cc2c(Nc3ccc(Br)cc3F)ncnc2cc1OCC1CCN(C)CC1` (library stock concentration (final ~1000-fold dilution): 2 mM), the “NF-kB SEAP reporter activity” value (RAW-Dual [2]; agonist: LPS (TLR4) 0.1 ug/mL) was 1.92, the “NF-kB SEAP reporter activity” value (RAW-Dual [2]; [5]) was 0.275 and the “NF-kB SEAP reporter activity” value (RAW-Dual [2]; [6]) was 1.15. The “NF-kB SEAP reporter activity” value (RAW-Dual [2]; [7]) was 1.22.
In the case of `COc1cc2c(Nc3ccc(Br)cc3F)ncnc2cc1OCC1CCN(C)CC1`, the “NF-kB SEAP reporter activity” value (RAW-Dual [1]; library stock concentration (final ~1000-fold dilution): 2 mM, cytotoxicity flag (confluency mask): not cytotoxic, agonist: Imiquimod (TLR7) […]) is reported as 1.12 and the “NF-kB SEAP reporter activity” value (RAW-Dual [1]; library stock concentration (final ~1000-fold dilution): 2 mM, cytotoxicity flag (confluency mask): not cytotoxic, agonist: MPLA (TLR4) […]) is reported as 1.35.
`CCOC(=O)C1=C(COCCN)NC(C)=C(C(=O)OC)C1c1ccccc1Cl.O=S(=O)(O)c1ccccc1` (centres undefined) was tested, and the “NF-kB SEAP reporter activity” value (RAW-Dual [1]; library stock concentration (final ~1000-fold dilution): 10 mM, cytotoxicity flag (confluency mask): cytotoxic (confluency <70% of control), agonist: MPLA (TLR4) […]) was 2.58.
In the case of `CC12CCC3c4ccc(O)cc4CCC3C1CC(O)C2O` (centres undefined), the “NF-kB SEAP reporter activity” value (RAW-Dual [1]; [3]) is reported as 1.11 and the “NF-kB SEAP reporter activity” value (RAW-Dual [1]; [4]) is reported as 1.08.
With `CC12CCC3c4ccc(O)cc4CCC3C1CC(O)C2O` (centres undefined) (library stock concentration (final ~1000-fold dilution): 10 mM) the “NF-kB SEAP reporter activity” value (RAW-Dual [2]; agonist: LPS (TLR4) 0.1 ug/mL) was 1.1, the “NF-kB SEAP reporter activity” value (RAW-Dual [2]; [5]) was 1.1 and the “NF-kB SEAP reporter activity” value (RAW-Dual [2]; [6]) was 1.16. The “NF-kB SEAP reporter activity” value (RAW-Dual [2]; [7]) was 1.33.
